The other results are listed elsewhere or left out.
The sequences below were run on PF3D7_0420300 AP2 domain 1 (GST-tagged) (assay: gcPBM binding intensity (ln(normalized median fluorescence intensity)); higher = stronger DNA binding).
Method in brief: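 Each value is the highest Masliner-normalised natural-log median intensity across replicate spots of either orientation of a probe. The probes were primer-extended double-stranded 36-bp intergenic genomic sequences on an Agilent 4 × 180k array, alongside negative controls, exposed for 1 h to GST-tagged P. falciparum DNA-binding domains expressed in E. coli. Bound protein was picked up with Alexa488 anti-GST antibody and scanned at 488 nm.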

Going from “TCATTCATATGTTACACACACACACGCACATAAAAA [CACACA_site7514]” to “AAGTTGGAAAGGTTATGTACTTATTTTTTAAAATAA [XGTACX_site204]”, the “gcPBM binding intensity (ln)” value falls from 10.3 to 8.98.

Going from “TTTTTTTTTCCCGTAAATATTGAGACAACCATAATG [CACACA_negctrl_site41]” to “TATTTTTATTTAGGACGTACAAAAATAAATCATATT [XGTACX_site1448]”, the “gcPBM binding intensity (ln)” value rises from 8.98 to 8.99.

Going from “TATAAATATTACGGTAGTACTATACATATATATAAT [XGTACX_site7442]” to “TTAGAAACATTGAAAGCATGCAATATTACTTTATAC [TGCATGCA_site522]”, the “gcPBM binding intensity (ln)” value falls from 9.31 to 9.2.

Compared with “TCCTTATATTTGCACACACACACAAGAAAATGAAAA [CACACA_site6613]”, “CATATAAAAAGACACACACACACATATATATATATA [CACACA_site940]” is lower in “gcPBM binding intensity (ln)” value: 10.1 for the first, 10 for the second.

First: TCTTTCTTATATTTATATAATTATATTTATTTTATA [GTGCAC_negctrl_site300]
Second: TTTAATTTGTTATACACACACAAAAAAAGTTATAAA [CACACA_site7779]
The “gcPBM binding intensity (ln)” value of the first is lower: 9.33 for the first, 9.45 for the second.

First: GGAATACAGGAAAAAAGTACAGAAAATGGAATATTA [XGTACX_site5053]
Second: ATATAATGTTATAGAAGTACATGAAATACTTATTTA [XGTACX_site8850]
The “gcPBM binding intensity (ln)” value of the first is higher: 9.31 for the first, 9.18 for the second.

Going from “AACATTTATAAATATTGTACATATAGATTTATATAT [XGTACX_site2662]” to “AACAATATATTGAATAGTACATATATATAAACATAT [XGTACX_site2811]”, the “gcPBM binding intensity (ln)” value rises from 9.17 to 9.46.

Going from “AAAATAAAATAACGTTGTACAACATCATTTCTATAT [XGTACX_site5080]” to “GATTTACAACACGAACGTACAGAACAAAAAGGAAAA [XGTACX_site6501]”, the “gcPBM binding intensity (ln)” value rises from 9.19 to 9.4.

First: GTATCTCATTATTCGTGTACTAAACACATAAAAATA [XGTACX_site2262]
Second: ATCTATATCTATAATACACACTAAAGTAACAGAATA [CACACA_site7370]
The “gcPBM binding intensity (ln)” value of the first is lower: 9.16 for the first, 9.51 for the second.

First: TGTTTAAAGGAAAAGGAGTAGTCTATTATATTATCT [CACACA_negctrl_site858]
Second: TATAAAAATAAAAAAAGTACACATAAAAATATATAT [XGTACX_site5189]
The “gcPBM binding intensity (ln)” value of the first is lower: 9.1 for the first, 9.62 for the second.

Compared with “AATGTAAAAGTAAACACACACATATATATATACATA [CACACA_site2484]”, “TATTGTATTTAATAAACACACAATATTAAAAATATA [CACACA_site4725]” is lower in “gcPBM binding intensity (ln)” value: 9.89 for the first, 9.17 for the second.

First: CATATATACACATACACACACACACGGACACGCACA [CACACA_site6910]
Second: ATACACATATATGTGTGTACTCACCTTTTAATATGA [XGTACX_site4349]
The “gcPBM binding intensity (ln)” value of the first is higher: 10.2 for the first, 9.41 for the second.

Going from “ATAAAAATTGATTATACACACGCGCACCCACAACAA [CACACA_site3536]” to “ATGTCAAATTTTTGTGCACACATATATAGTTATTAT [CACACA_site2242]”, the “gcPBM binding intensity (ln)” value falls from 9.78 to 9.69.

Going from “TATATATATCAGCAATGTACACAATGCATATTATAT [XGTACX_site4836]” to “TAAGGATAAATAAAATGAAATGAAATAAATAAATGA [XGTACX_negctrl_site539]”, the “gcPBM binding intensity (ln)” value rises from 9.15 to 9.24.

Compared with “TTATTTTATTTTAAAAAAAACAATATAAATTCAAAG [GTGCAC_negctrl_site57]”, “ATTATACAAAATGGTAAGGAAAAGGAAATTTTTTTT [CACACA_negctrl_site1090]” is higher in “gcPBM binding intensity (ln)” value: 8.67 for the first, 9.17 for the second.

Compared with “CAATATTATATATATACACACATAATCTGTAAAAAC [CACACA_site1068]”, “CATATATATATATATACACACATATATATTTTCTTT [CACACA_site1457]” is lower in “gcPBM binding intensity (ln)” value: 9.64 for the first, 9.46 for the second.

Compared with “AAAAAAAAAAATATCACACACACATAAATATAAACA [CACACA_site7138]”, “AAAGTAGGCTTATATGCACACTTTGAAATATTATAA [CACACA_site5117]” is lower in “gcPBM binding intensity (ln)” value: 10.1 for the first, 9.1 for the second.

First: TATAAAAATATATTTACACACTATATATATCGAAAG [CACACA_site1700]
Second: ATGGTTTAGTTATATACACACTCGAAAATAACGACA [CACACA_site7520]
The “gcPBM binding intensity (ln)” value of the first is lower: 9.32 for the first, 9.37 for the second.

Going from “ATATATTTTCAAAAAAGTAAATCAAAATAAATATAT [TGCATGCA_negctrl_site319]” to “TCCAAATACAACTACACACAAACAAAAATTATATAT [CACACA_site881]”, the “gcPBM binding intensity (ln)” value rises from 9.09 to 9.81.

Going from “TTTTTTTTAAGAGATAGTACATAAATATTATAATAT [XGTACX_site4685]” to “AAAATTTTTCTTAAAGCATGCACAATTAAGAAGACG [TGCATGCA_site883]”, the “gcPBM binding intensity (ln)” value rises from 8.91 to 9.18.

First: TTAAAATTAATTCACCAGTATTAAAATAAAAACGAA [CACACA_negctrl_site1428]
Second: AAATAAAATTTTATGTGTACGCAAAAAGTTGTAAGC [XGTACX_site8911]
The “gcPBM binding intensity (ln)” value of the first is lower: 9.3 for the first, 9.39 for the second.

First: TACAATCTAAAATACACACACACAAACATATATTTA [CACACA_site3702]
Second: AATAAATAAATATATACACACATATATATATAATAT [CACACA_site921]
The “gcPBM binding intensity (ln)” value of the first is higher: 10.2 for the first, 9.6 for the second.

Compared with “TGAAAAAATATAAAATATAAAATAAAAAATATAAAA [GTGCAC_negctrl_site536]”, “AAGATATATATAGAAAGTACTTATATTTGTATAATT [XGTACX_site8855]” is higher in “gcPBM binding intensity (ln)” value: 9.23 for the first, 9.31 for the second.

First: ATATTAATATATATGTTTTATTACCATTTTATGTAT [CACACA_negctrl_site1761]
Second: TCTACAATTATAATTACACACTATAAAAAAGAAAGA [CACACA_site2984]
The “gcPBM binding intensity (ln)” value of the first is higher: 9.44 for the first, 9.37 for the second.

Going from “AAAAATAGGAACCAATATCCAACGTGACTTTATAAT [CACACA_negctrl_site1011]” to “AAAATAATTATGAATTGTACAGGTTTTTTTTTTTTT [XGTACX_site220]”, the “gcPBM binding intensity (ln)” value falls from 9.55 to 9.19.

First: GGAAAAAAAAAAAAAAAACACACGGTACATTCAAAC [CACACA_site2715]
Second: AAAAAATTTTTAAGCACACACATAGATAATATATAT [CACACA_site1555]
The “gcPBM binding intensity (ln)” value of the first is lower: 9.67 for the first, 9.72 for the second.

Going from “ATGGTATCTTTTAGAAGTACATCATGATAATAATTT [XGTACX_site5544]” to “GATCATAATATTTAAAAGAATATATATAAAAAGGAA [XGTACX_negctrl_site310]”, the “gcPBM binding intensity (ln)” value rises from 9.06 to 9.24.

Going from “GTATTAATTTATATATGTACATATGTGATATATATA [XGTACX_site5825]” to “CAAAATTAATAAGTCACACACACATATATAATATAT [CACACA_site798]”, the “gcPBM binding intensity (ln)” value rises from 9.2 to 10.1.
